# Measured values taken from the supplement of paper PMC8728848.
# The other results are listed elsewhere or left out.
# Columns and labels:
# Assay in all cases: glycan array binding signal (z-score within array); higher = stronger binding
# Details in all cases: glycan notation: IUPAC condensed, linker removed
# [1] = molecular target: Gal(b1-3)GlcNAc(b1-2)Man(a1-3)[GlcNAc(b1-4)][Gal(b1-3)GlcNAc(b1-2)Man(a1-6)]Man(b1-4)GlcNAc(b1-4)GlcNAc
# Summary of the method: (§1)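 The binding signal is a Z-score computed within each array. Data were drawn from 3228 arrays in the Consortium for Functional Glycomics database, restricted to those with a known protein sequence. Scores were averaged over arrays of the same protein sequence at different concentrations or buffers, and over linkers, and negative values can be taken as non-binding.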
# [2] = molecular target: Gal(b1-3)GlcNAc(b1-2)[Gal(b1-3)GlcNAc(b1-6)]Man(a1-6)[Gal(b1-3)GlcNAc(b1-2)Man(a1-3)]Man(b1-4)GlcNAc(b1-4)GlcNAc
# Summary of the method: as §1
# [3] = molecular target: Gal(b1-3)GlcNAc(b1-3)Gal(b1-3)GlcNAc
# Summary of the method: as §1
# [4] = molecular target: Gal(b1-3)GlcNAc(b1-3)Gal(b1-4)Glc
# Summary of the method: as §1
# [5] = molecular target: Gal(b1-3)GlcNAc(b1-3)Gal(b1-4)GlcNAc
# Summary of the method: as §1
# [6] = molecular target: Gal(b1-3)GlcNAc(b1-3)Gal(b1-4)GlcNAc(b1-2)Man(a1-3)[Gal(b1-3)GlcNAc(b1-3)Gal(b1-4)GlcNAc(b1-2)Man(a1-6)]Man(b1-4)GlcNAc(b1-4)GlcNAc
# Summary of the method: as §1
# [7] = molecular target: Gal(b1-3)GlcNAc(b1-3)Gal(b1-4)GlcNAc(b1-2)[Gal(b1-3)GlcNAc(b1-3)Gal(b1-4)GlcNAc(b1-6)]Man(a1-6)[Gal(b1-3)GlcNAc(b1-3)Gal(b1-4)GlcNAc(b1-2)Man(a1-3)]Man(b1-4)GlcNAc(b1-4)[Fuc(a1-6)]GlcNAc
# Summary of the method: as §1
# [8] = molecular target: Gal(b1-3)GlcNAc(b1-3)Gal(b1-4)GlcNAc(b1-3)Gal(b1-4)GlcNAc(b1-2)[Gal(b1-3)GlcNAc(b1-3)Gal(b1-4)GlcNAc(b1-3)Gal(b1-4)GlcNAc(b1-6)]Man(a1-6)[Gal(b1-3)GlcNAc(b1-3)Gal(b1-4)GlcNAc(b1-3)Gal(b1-4)GlcNAc(b1-2)Man(a1-3)]Man(b1-4)GlcNAc(b1-4)[Fuc(a1-6)]GlcNAc
# Summary of the method: as §1
# [9] = molecular target: Gal(b1-3)GlcNAc(b1-3)Gal(b1-4)GlcNAc(b1-6)[Gal(b1-3)GlcNAc(b1-3)]Gal(b1-4)Glc
# Summary of the method: as §1
# [10] = molecular target: Gal(b1-3)GlcNAc(b1-3)Gal(b1-4)[Fuc(a1-3)]GlcNAc(b1-6)[Gal(b1-3)GlcNAc(b1-3)]Gal(b1-4)Glc
# Summary of the method: as §1
# [11] = molecular target: Gal(b1-3)GlcNAc(b1-3)GalNAc
# Summary of the method: as §1
# [12] = molecular target: Gal(b1-3)GlcNAc(b1-6)Gal(b1-4)GlcNAc
# Summary of the method: as §1
# [13] = molecular target: Gal(b1-3)GlcNAc(b1-6)GalNAc
# Summary of the method: as §1
# [14] = molecular target: Gal(b1-3)GlcNAc(b1-6)[Gal(b1-3)]GalNAc
# Summary of the method: as §1
# Gal(b1-3)GlcNAc6S = molecular target: Gal(b1-3)GlcNAc6S
# Summary of the method: as §1
# [15] = molecular target: Gal(b1-3)[Fuc(a1-4)]GlcNAc
# Summary of the method: as §1
# [16] = molecular target: Gal(b1-3)[Fuc(a1-4)]GlcNAc(b1-2)Man
# Summary of the method: as §1
# [17] = molecular target: Gal(b1-3)[Fuc(a1-4)]GlcNAc(b1-2)Man(a1-3)[Gal(b1-3)[Fuc(a1-4)]GlcNAc(b1-2)Man(a1-6)]Man(b1-4)GlcNAc(b1-4)[Fuc(a1-6)]GlcNAc
# Summary of the method: as §1
# [18] = molecular target: Gal(b1-3)[Fuc(a1-4)]GlcNAc(b1-3)Gal(b1-3)[Fuc(a1-4)]GlcNAc
# Summary of the method: as §1
# [19] = molecular target: Gal(b1-3)[Fuc(a1-4)]GlcNAc(b1-3)Gal(b1-4)GlcNAc
# Summary of the method: as §1
# [20] = molecular target: Gal(b1-3)[Fuc(a1-4)]GlcNAc(b1-3)Gal(b1-4)[Fuc(a1-3)]GlcNAc
# Summary of the method: as §1
# [21] = molecular target: Gal(b1-3)[Fuc(a1-4)]GlcNAc(b1-6)GalNAc
# Summary of the method: as §1
# [22] = molecular target: Gal(b1-3)[GlcNAc(b1-6)]GalNAc
# Summary of the method: as §1
# [23] = molecular target: Gal(b1-3)[Neu5Ac(a2-6)]GalNAc
# Summary of the method: as §1
# [24] = molecular target: Gal(b1-3)[Neu5Ac(a2-6)]GlcNAc(b1-4)Gal(b1-4)Glc
# Summary of the method: as §1
# [25] = molecular target: Gal(b1-3)[Neu5Ac(b2-6)]GalNAc
# Summary of the method: as §1
# Gal(b1-4)Gal = molecular target: Gal(b1-4)Gal
# Summary of the method: as §1
# [26] = molecular target: Gal(b1-4)GalNAc(a1-3)[Fuc(a1-2)]Gal(b1-4)GlcNAc
# Summary of the method: as §1
# [27] = molecular target: Gal(b1-4)GalNAc(b1-3)[Fuc(a1-2)]Gal(b1-4)GlcNAc
# Summary of the method: as §1
# Gal(b1-4)Glc = molecular target: Gal(b1-4)Glc
# Summary of the method: as §1
binder,measurement,setting,value
Blon2468mut (Bifidobacterium longum) (protein) MTFIKQMMPRYVASMTAGIVAAAMAATCAFAPVANADAVSPTQETIQSTGRHFMVYYRAWRDVTMKGVNTDLPDDNWISMYDIPYGVDVVNIFSYVPSGQEEQAQPFYDKLKSDYAPYLHSRGIKLVRGIDYTGVAVNGFRTFMKEQNKTESEATEADYDAYAKQVIDKYMISVGLDGLDIDMQAHPNDADVKISDNVIRALSKHIGPKSAKPDTTMFLYDTNGSYLNPFKNVAECFDYVAYQQYGSSSDRTARAAADYQPYIGNEFVPGLTFPEEGDMNNRWYDATEPYEESHFYQVASYVREHNLGGMFVYALDRDGRNYDEDLRRIVPSNLLWTKTAIAESEGMALDTAKTAANHYLDRMSLRQVIDDNAASADKARDMVGKAANLYETNKAVLGGDYGEGFSNTYDPTLEAGLLGIDISVLQQQIDKSSEIIGADTAESDAKTALRMARDAAIDGLTGKIYTADQVSAWSQALKAALDATVPVPTPDSTDQNGNRDKVTNHKVQGQPKQLSATGISTDIIVAVGVTLAIAGVALSLSRKLS,glycan array binding signal (z-score),[1],-0.042
same,glycan array binding signal (z-score),[2],-0.083
same,glycan array binding signal (z-score),[3],-0.07
same,glycan array binding signal (z-score),[4],-0.043
same,glycan array binding signal (z-score),[5],-0.079
same,glycan array binding signal (z-score),[6],-0.09
same,glycan array binding signal (z-score),[7],0.03
same,glycan array binding signal (z-score),[8],0.124
same,glycan array binding signal (z-score),[9],-0.058
same,glycan array binding signal (z-score),[10],-0.087
same,glycan array binding signal (z-score),[11],-0.075
same,glycan array binding signal (z-score),[12],-0.081
same,glycan array binding signal (z-score),[13],-0.095
same,glycan array binding signal (z-score),[14],-0.06
same,glycan array binding signal (z-score),Gal(b1-3)GlcNAc6S,-0.096
same,glycan array binding signal (z-score),[15],-0.042
same,glycan array binding signal (z-score),[16],-0.067
same,glycan array binding signal (z-score),[17],-0.049
same,glycan array binding signal (z-score),[18],-0.068
same,glycan array binding signal (z-score),[19],-0.083
same,glycan array binding signal (z-score),[20],-0.085
same,glycan array binding signal (z-score),[21],-0.056
same,glycan array binding signal (z-score),[22],-0.055
same,glycan array binding signal (z-score),[23],-0.048
same,glycan array binding signal (z-score),[24],-0.034
same,glycan array binding signal (z-score),[25],-0.065
same,glycan array binding signal (z-score),Gal(b1-4)Gal,-0.031
same,glycan array binding signal (z-score),[26],-0.081
same,glycan array binding signal (z-score),[27],-0.041
same,glycan array binding signal (z-score),Gal(b1-4)Glc,-0.053
